# The supplement of paper PMC10037445
# ± gives the standard deviation of the averaged measurements. Whole data set: some 2,900 compounds, median “IRF Lucia reporter activity, fold change vs agonist alone” near 0.9, cut for the highest 2% near 2.8. The list shows a part of the results.
# Experiments:
# RAW-Dual [1] = test: IRF Lucia reporter activity, fold change vs agonist alone; higher = enhanced IRF activity; details: library stock concentration (final ~1000-fold dilution): 10 mM; cytotoxicity flag (confluency mask): not cytotoxic; agonist: MPLA (TLR4) […]
# Summary of the method: (§1)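 Library stock was pin-tooled at 50 nL into 384-well plates of RAW-Dual macrophages (50,000 cells/well, DMEM), followed 1 h later by a PRR agonist, and the cells were kept at 37 °C, 5% CO2. Supernatant collected after 20 hours was read for IRF by QuantiLuc luminescence and for NF-κB by QuantiBlue absorbance at 620 nm. Reporter activity is fold change over agonist-alone wells, and a well counted as cytotoxic when its IncuCyte confluency was below 70% of agonist controls in both mask sets.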
# RAW-Dual [2] = test: IRF Lucia reporter activity, fold change vs agonist alone; cytotoxicity flag (confluency mask): not cytotoxic; higher = enhanced IRF activity
# Summary of the method: as §1
# RAW-Dual [3] = test: IRF Lucia reporter activity, fold change vs agonist alone; cytotoxicity flag (confluency mask): cytotoxic (confluency <70% of control); higher = enhanced IRF activity
# Summary of the method: as §1
# [4] = agonist: 3'3'-cGAMP (STING) 10 ug/mL
compound,measurement,setting,value
COc1ccc(C(=C2C(=O)Nc3ccccc32)c2ccc(OC)cc2)cc1,IRF Lucia reporter activity,RAW-Dual [1],1.41
CCCN(CCC)S(=O)(=O)c1ccc(C(=O)O)cc1 (library stock concentration (final ~1000-fold dilution): 10 mM),IRF Lucia reporter activity,RAW-Dual [2]; [4],1.14
same,IRF Lucia reporter activity,RAW-Dual [2]; agonist: LPS (TLR4) 0.1 ug/mL,1.35
CCCN(CCC)S(=O)(=O)c1ccc(C(=O)O)cc1,IRF Lucia reporter activity,RAW-Dual [1],1.19
Cl.NC(=O)c1cnc(NC2CCCCC2N)nc1Nc1cccc(-n2nccn2)c1 (stereo not given) (library stock concentration (final ~1000-fold dilution): 10 mM),IRF Lucia reporter activity,RAW-Dual [3]; [4],0.0603
same,IRF Lucia reporter activity,RAW-Dual [3]; agonist: LPS (TLR4) 0.1 ug/mL,0.0176
O=c1[nH]c(=S)[nH]c(-c2ccccc2)c1Cc1c(O)ccc2ccccc12,IRF Lucia reporter activity,RAW-Dual [1],0.949
O=c1[nH]c(=S)[nH]c(-c2ccccc2)c1Cc1c(O)ccc2ccccc12 (library stock concentration (final ~1000-fold dilution): 10 mM),IRF Lucia reporter activity,RAW-Dual [2]; [4],0.689
same,IRF Lucia reporter activity,RAW-Dual [2]; agonist: LPS (TLR4) 0.1 ug/mL,0.798
CCCC(CCC)C(N)=O,IRF Lucia reporter activity,RAW-Dual [1],1.04
CCCC(CCC)C(N)=O (library stock concentration (final ~1000-fold dilution): 10 mM),IRF Lucia reporter activity,RAW-Dual [2]; [4],0.954
same,IRF Lucia reporter activity,RAW-Dual [2]; agonist: LPS (TLR4) 0.1 ug/mL,1.33
CC(NC(=O)Cc1cc(F)cc(F)c1)C(=O)NC(C(=O)OC(C)(C)C)c1ccccc1 (stereo not given),IRF Lucia reporter activity,RAW-Dual [1],1.21
CC(NC(=O)Cc1cc(F)cc(F)c1)C(=O)NC(C(=O)OC(C)(C)C)c1ccccc1 (stereo not given) (library stock concentration (final ~1000-fold dilution): 10 mM),IRF Lucia reporter activity,RAW-Dual [2]; [4],0.378
same,IRF Lucia reporter activity,RAW-Dual [2]; agonist: LPS (TLR4) 0.1 ug/mL,1.03
O=C(O)c1cc2ccccc2c(Cc2c(O)c(C(=O)O)cc3ccccc23)c1O.OCCOCCN1CCN(C(c2ccccc2)c2ccc(Cl)cc2)CC1 (library stock concentration (final ~1000-fold dilution): 10 mM),IRF Lucia reporter activity,RAW-Dual [2]; [4],0.385
same,IRF Lucia reporter activity,RAW-Dual [2]; agonist: LPS (TLR4) 0.1 ug/mL,0.363
O=C(O)c1cc2ccccc2c(Cc2c(O)c(C(=O)O)cc3ccccc23)c1O.OCCOCCN1CCN(C(c2ccccc2)c2ccc(Cl)cc2)CC1,IRF Lucia reporter activity,RAW-Dual [1],0.55
CC1CC2C3CCC4=CC(=O)C=CC4(C)C3(F)C(O)CC2(C)C1(O)C(=O)CO (stereo not given) (library stock concentration (final ~1000-fold dilution): 1 mM),IRF Lucia reporter activity,RAW-Dual [2]; [4],0.589
same,IRF Lucia reporter activity,RAW-Dual [2]; agonist: LPS (TLR4) 0.1 ug/mL,0.615
CC(Nc1nc(NC(C)C(F)(F)F)nc(-c2cccc(Cl)n2)n1)C(F)(F)F (stereo not given) (library stock concentration (final ~1000-fold dilution): 10 mM),IRF Lucia reporter activity,RAW-Dual [2]; [4],1.35
same,IRF Lucia reporter activity,RAW-Dual [2]; agonist: LPS (TLR4) 0.1 ug/mL,1.3
COc1ccc2cc1Oc1ccc(cc1)CC1c3cc(c(OC)cc3CCN1C)Oc1c(OC)c(OC)cc3c1C(C2)N(C)CC3 (stereo not given) (library stock concentration (final ~1000-fold dilution): 10 mM),IRF Lucia reporter activity,RAW-Dual [2]; [4],1.01
same,IRF Lucia reporter activity,RAW-Dual [2]; agonist: LPS (TLR4) 0.1 ug/mL,0.352
COc1ccc2cc1Oc1ccc(cc1)CC1c3cc(c(OC)cc3CCN1C)Oc1c(OC)c(OC)cc3c1C(C2)N(C)CC3 (stereo not given),IRF Lucia reporter activity,RAW-Dual [1],1.07
CC1(C)CC[C@]2(C(=O)n3ccnc3)CC[C@]3(C)[C@H](C(=O)C=C4[C@@]5(C)C=C(C#N)C(=O)C(C)(C)[C@@H]5CC[C@]43C)[C@@H]2C1 (library stock concentration (final ~1000-fold dilution): 10 mM),IRF Lucia reporter activity,RAW-Dual [2]; [4],0.0101
same,IRF Lucia reporter activity,RAW-Dual [2]; agonist: LPS (TLR4) 0.1 ug/mL,0.01
C=CC[N+]1(C2CC3C4CCC5CC(O)C(N6CCOCC6)CC5(C)C4CCC3(C)C2OC(C)=O)CCCC1 (stereo not given),IRF Lucia reporter activity,RAW-Dual [1],0.908
C=CC[N+]1(C2CC3C4CCC5CC(O)C(N6CCOCC6)CC5(C)C4CCC3(C)C2OC(C)=O)CCCC1 (stereo not given) (library stock concentration (final ~1000-fold dilution): 10 mM),IRF Lucia reporter activity,RAW-Dual [2]; [4],0.97
same,IRF Lucia reporter activity,RAW-Dual [2]; agonist: LPS (TLR4) 0.1 ug/mL,0.932
CC(C)c1ccc(NC(=O)Cn2cnc3c2c(=O)n(C)c(=O)n3C)cc1 (library stock concentration (final ~1000-fold dilution): 10 mM),IRF Lucia reporter activity,RAW-Dual [2]; [4],1.01
same,IRF Lucia reporter activity,RAW-Dual [2]; agonist: LPS (TLR4) 0.1 ug/mL,0.982
CC(C)c1ccc(NC(=O)Cn2cnc3c2c(=O)n(C)c(=O)n3C)cc1,IRF Lucia reporter activity,RAW-Dual [1],1.04
COc1cc(C2Oc3cc(C4Oc5cc(O)cc(O)c5C(=O)C4O)ccc3OC2CO)ccc1O (stereo not given) (library stock concentration (final ~1000-fold dilution): 10 mM),IRF Lucia reporter activity,RAW-Dual [2]; [4],0.929
same,IRF Lucia reporter activity,RAW-Dual [2]; agonist: LPS (TLR4) 0.1 ug/mL,0.985
CCC(CC)n1ccc2c(C(=O)NCc3c(C)cc(C)[nH]c3=O)cc(C#N)cc21 (library stock concentration (final ~1000-fold dilution): 10 mM),IRF Lucia reporter activity,RAW-Dual [2]; [4],0.875
same,IRF Lucia reporter activity,RAW-Dual [2]; agonist: LPS (TLR4) 0.1 ug/mL,1.01
CCNC(=O)c1[nH]nc(-c2cc(Cl)c(O)cc2O)c1-c1ccc(OC)cc1,IRF Lucia reporter activity,RAW-Dual [1],0.971
CCNC(=O)c1[nH]nc(-c2cc(Cl)c(O)cc2O)c1-c1ccc(OC)cc1 (library stock concentration (final ~1000-fold dilution): 10 mM),IRF Lucia reporter activity,RAW-Dual [2]; [4],0.645
same,IRF Lucia reporter activity,RAW-Dual [2]; agonist: LPS (TLR4) 0.1 ug/mL,1.16
CC(C)(C)C(=O)N1N=CCC1c1ccccc1 (stereo not given) (library stock concentration (final ~1000-fold dilution): 10 mM),IRF Lucia reporter activity,RAW-Dual [2]; [4],0.99 ± 0.053
same,IRF Lucia reporter activity,RAW-Dual [2]; agonist: LPS (TLR4) 0.1 ug/mL,0.981 ± 0.079
CC(C)C(C(=O)Nc1ccc(C(=O)NO)cc1)c1ccccc1 (stereo not given) (library stock concentration (final ~1000-fold dilution): 10 mM),IRF Lucia reporter activity,RAW-Dual [2]; [4],0.983
same,IRF Lucia reporter activity,RAW-Dual [2]; agonist: LPS (TLR4) 0.1 ug/mL,0.312
CC(C)C(C(=O)Nc1ccc(C(=O)NO)cc1)c1ccccc1 (stereo not given),IRF Lucia reporter activity,RAW-Dual [1],1.09
